The whole screen tested about 310,000 compounds, of which about 2,200 (0.71%) showed an effect of 50% or more. Effects have a minus sign here. The list shows a part of the results.

This test deals with human ether-à-go-go-related gene (hERG) potassium channel (human, UniProt Q12809). The experiment in a line: primary screen, population patch clamp on CHO cells stably expressing hERG.
human ether-à-go-go-related gene (hERG) potassium channel, sequence (Q12809 whole entry, looked up): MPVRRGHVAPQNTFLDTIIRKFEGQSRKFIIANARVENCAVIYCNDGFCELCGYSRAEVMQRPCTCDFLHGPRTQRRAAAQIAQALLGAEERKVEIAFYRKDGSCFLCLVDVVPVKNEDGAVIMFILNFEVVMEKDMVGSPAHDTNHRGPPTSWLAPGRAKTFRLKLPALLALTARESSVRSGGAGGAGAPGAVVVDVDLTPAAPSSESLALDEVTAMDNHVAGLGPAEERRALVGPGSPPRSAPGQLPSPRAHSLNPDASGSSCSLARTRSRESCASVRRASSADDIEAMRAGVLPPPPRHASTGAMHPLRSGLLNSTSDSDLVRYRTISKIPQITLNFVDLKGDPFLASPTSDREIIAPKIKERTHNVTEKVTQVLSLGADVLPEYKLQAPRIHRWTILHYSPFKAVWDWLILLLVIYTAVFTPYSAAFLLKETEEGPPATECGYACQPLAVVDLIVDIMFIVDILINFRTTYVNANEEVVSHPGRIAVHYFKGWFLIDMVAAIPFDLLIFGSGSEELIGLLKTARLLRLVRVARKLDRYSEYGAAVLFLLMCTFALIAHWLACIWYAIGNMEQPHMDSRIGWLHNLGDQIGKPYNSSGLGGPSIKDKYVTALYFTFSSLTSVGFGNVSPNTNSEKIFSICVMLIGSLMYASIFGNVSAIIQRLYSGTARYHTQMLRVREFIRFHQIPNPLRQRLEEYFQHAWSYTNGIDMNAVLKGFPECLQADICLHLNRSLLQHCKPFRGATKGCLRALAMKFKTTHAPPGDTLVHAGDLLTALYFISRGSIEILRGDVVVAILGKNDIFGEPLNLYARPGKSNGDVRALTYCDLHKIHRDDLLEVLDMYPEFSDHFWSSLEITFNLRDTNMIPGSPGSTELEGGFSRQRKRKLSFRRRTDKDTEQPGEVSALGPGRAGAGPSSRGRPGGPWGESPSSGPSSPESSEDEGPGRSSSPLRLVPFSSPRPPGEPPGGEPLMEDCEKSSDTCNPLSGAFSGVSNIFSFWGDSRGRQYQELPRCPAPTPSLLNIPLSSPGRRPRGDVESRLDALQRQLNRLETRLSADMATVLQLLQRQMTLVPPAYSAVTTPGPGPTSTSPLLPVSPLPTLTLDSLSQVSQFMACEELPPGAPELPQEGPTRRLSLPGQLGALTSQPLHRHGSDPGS
As for `Br.CC(C)(C)c1cc(C2=CSC3=NCCN23)cc(C(C)(C)C)c1O`, the “hERG current change (%, negative = inhibition) at 1uM” value was -36.9%.
In the case of `Cc1nc2cc(-c3ccccc3)[nH]n2c(=O)c1C` it was 12%; in that of `COCCCn1c2nc3ccccc3nc2c2c(=O)n(Cc3cccs3)cnc21`, 8.65%.
Take `CC(=O)C(Cc1ccccc1)(Cc1ccccc1)C(C)=O`: the “hERG current change (%, negative = inhibition) at 1uM” value came out at 16%.
In the case of `NC(=O)c1c(NC(=O)CSc2nnc(-c3ccccc3)n2CC2CCCO2)sc2c1CCC2` (centres unmarked), the “hERG current change (%, negative = inhibition) at 1uM” value is listed as -3.04%.
Consider `O=C(Cc1ccccc1)OCC(=O)N1CCN(S(=O)(=O)c2ccc(Cl)cc2)CC1`, for which the “hERG current change (%, negative = inhibition) at 1uM” value is recorded as 2.26%.
In the case of `O=C(OCc1c(F)cccc1Cl)c1cnc(Cl)c(Cl)c1` it was 11.2%.
`COc1ccc(C2=NOC(C)(c3nnc(-c4ccncc4)o3)C2)cc1` (centres unmarked): the “hERG current change (%, negative = inhibition) at 1uM” value is on record as 14.6%.
As to `COc1ccc(C2CN(C)CC2C(=O)c2ccc(C)cc2)cc1Cl` (centres unmarked), the “hERG current change (%, negative = inhibition) at 1uM” value is -23.4%.
As for `C=CCOc1ccc(CC2C(=O)N(C)C(=O)N(C)C2=O)cc1`, the figure is 23.3%; as for `O=C(CNC(=O)c1cccs1)NCCc1ccco1`, 10.8%; as for `Cc1cnc(C(=O)OCC(=O)NCc2ccc3c(c2)OCO3)cn1`, 9.23%.
As for `COc1ccc(CCN2C(=O)C(Oc3ccccc3C)C2c2ccc3c(c2)OCO3)cc1` (centres unmarked), the figure is -5.92%.
As for `Cc1ccc(CNC(=O)c2ccc(CS(=O)(=O)c3ccccc3)o2)cc1`, the figure is 9.49%; as for `CCc1cccc(C)c1NC(=S)N1CCCC1C(=O)O` (centres unmarked), 8.15%.
With `CCOC(=O)C1CCN(C(=O)c2cc(S(=O)(=O)N3CCc4ccccc43)ccc2OC)CC1`, the “hERG current change (%, negative = inhibition) at 1uM” value is -6.4%.
In the case of `CCOCCCNC(=O)C1CCN(S(=O)(=O)N(CC(C)C)CC(C)C)CC1` it was 8.47%.
With `CNC(=O)c1ccsc1NC(=O)c1ccc(S(=O)(=O)N2CCCc3ccccc32)cc1`, the “hERG current change (%, negative = inhibition) at 1uM” value worked out at 6.34%.
In the case of `CCOC(=O)Cn1nc(C)c(NC(=O)c2cccc([N+](=O)[O-])c2)c1C` it was -7.94%; in that of `COc1ccc(CC(=O)NNC(=O)CSc2nnc(C)n2-c2ccccc2)cc1`, -1.11%; in that of `O=C(NCC1CCCO1)C(=O)N/N=C\c1ccc2c(c1)OCO2` (centres unmarked), -7.93%.
With `COc1ccc(S(=O)(=O)n2ccc(-c3cnc(-c4ccccc4)s3)n2)cc1`, the “hERG current change (%, negative = inhibition) at 1uM” value is reported as 11.7%.
In the case of `COc1ccc(Cl)cc1NC(=O)CN(C)C(=O)CCSc1ccc(C)cc1` it was 17.7%; in that of `CC(C)C(NC(=O)c1c(F)cccc1F)C(=O)NC1CC(C)(C)NC(C)(C)C1` (centres unmarked), 15.8%.
For `N#Cc1cc2c(nc1SCC(=O)N1CCCCC1)CCCCC2`, the “hERG current change (%, negative = inhibition) at 1uM” value was determined as 8.46%.
Turning to `COC(=O)c1cc2nc(-c3ccc(OC)cc3)cc(C(F)(F)F)n2n1`, the “hERG current change (%, negative = inhibition) at 1uM” value worked out at 13.5%.
As for `c1ccc2c(c1)ncc1cccn12`, the figure is 8.17%.
For the molecule `COc1cccc(NC(=O)c2nc3nc(C)cc(C(F)F)n3n2)c1`, the “hERG current change (%, negative = inhibition) at 1uM” value amounted to 13.3%.
Turning to `COc1cc(Br)c(C(C)NC(=O)c2cccc(Br)c2)cc1OC` (centres unmarked), the “hERG current change (%, negative = inhibition) at 1uM” value came out at 2.43%.
For `O=C(NC1CC1)c1cc2ccccc2o1`, the “hERG current change (%, negative = inhibition) at 1uM” value came out at 12.2%.
On to `COc1ccc(-c2cc(C(=O)OCC(=O)NC3CC3)c3ccccc3n2)cc1`, for which the “hERG current change (%, negative = inhibition) at 1uM” value was found to be 6.23%.
For the molecule `CCn1c(NCc2cccs2)nc2ccccc21`, the “hERG current change (%, negative = inhibition) at 1uM” value was 0.401%.
As to `Cc1ccc(-c2cc(C(F)F)n3ncc(C(=O)Nc4ccc(S(=O)(=O)Nc5ccccc5C)cc4)c3n2)cc1`, the “hERG current change (%, negative = inhibition) at 1uM” value was 6.82%.
In the case of `O=C(NS(=O)(=O)Oc1ccc(Cl)cc1)OC[C@@H]1CCCN2CCCC[C@H]12`, the “hERG current change (%, negative = inhibition) at 1uM” value is recorded as 19.2%.
In the case of `C=CCn1c(SCCN2CCOCC2)nc2c1c(=O)[nH]c(=O)n2C` it was 8.38%; in that of `CCOC(=O)Nc1nc(-c2ccccc2)c(C(=O)c2ccccc2)s1`, 1.49%; in that of `C=CCNC(=O)CC(=O)N/N=C/c1cccc(Br)c1`, 7.57%.
As for `COC(=O)c1cc(OC)c(OC)cc1NC(=S)Nc1cccc(Cl)c1`, the figure is 11.2%; as for `CCn1cc(C(=O)O)c(=O)c2cnc(N3CCN(C(=S)Nc4ccccc4)CC3)nc21`, 14.9%; as for `COc1ccc(C2C=C(C)Nc3nc4ccccc4n32)cc1` (centres unmarked), 7.08%.
Turning to `COc1ccccc1CCC(=O)Nc1ccc(OC)c(S(=O)(=O)N2CCOCC2)c1`, the “hERG current change (%, negative = inhibition) at 1uM” value was 12.5%.
As for `Cc1nn(C)c(Oc2ccccc2)c1CCNS(=O)(=O)c1ccc(Cl)cc1`, the figure is 6.35%; as for `O=C(c1cc2ccccc2oc1=O)N1CCN(c2ccc(N3CCOCC3)nn2)CC1`, 10.1%; as for `Cl.O=C(CCN1CCCCC1)Nc1cccc(Br)c1`, 2.39%.
Consider `Cc1cc(C(=O)Nn2c(C3CCCCC3)nc3ccccc3c2=O)ccc1[N+](=O)[O-]`, for which the “hERG current change (%, negative = inhibition) at 1uM” value came to 11.3%.
As for `NC(=O)C1CCN(c2ccc(S(=O)(=O)N3CCCCC3)cn2)CC1`, the figure is 18%.
In the case of `Cc1cc(/C=C2/NC(=O)NC2=O)c(C)n1-c1ccc(N2CCOCC2)cc1` it was 9.64%; in that of `CCN(Cc1ccncc1)C(=O)CCc1nnc(CCC2CCCCC2)o1`, 1.67%; in that of `C[C@@]12CCC3[C@@](CC[C@@H]4[C@](C)(C(=O)O)CCC[C@@]34C)(C[C@H]1O)C2` (some centres unmarked), 12.6%.
As to `COc1cccc(NC(=O)C2COc3ccccc3O2)c1` (centres unmarked), the “hERG current change (%, negative = inhibition) at 1uM” value turned out to be 10.4%.
For `Cc1cc(C)cc(Nc2ccc3nonc3c2[N+](=O)[O-])c1`, the “hERG current change (%, negative = inhibition) at 1uM” value is 6.34%.
As for `CCOc1ccc(-c2nc3ccccc3c(=O)o2)cc1`, the “hERG current change (%, negative = inhibition) at 1uM” value is reported as 11.9%.
As to `CC(C)(C)c1ccc(OCCNC(=S)Nc2ccccc2)cc1`, the “hERG current change (%, negative = inhibition) at 1uM” value is 10.5%.
For `COc1cccc(CNC(=O)Cn2ccc3cc(S(=O)(=O)N4CCCCCC4)ccc32)c1`, the “hERG current change (%, negative = inhibition) at 1uM” value was determined as 15.2%.
In the case of `O=C(NNC(=S)Nc1ccccc1C(F)(F)F)C1CC1` it was 3.93%; in that of `CNC(=S)Nc1ccc(-c2nc3ccc(C)cc3s2)cc1`, 10.9%; in that of `COc1ccccc1N1C(=O)c2cccc3cccc(c23)C1=O`, 12.1%.
As for `CN(C)C1(c2nnnn2-c2ccc(Cl)cc2)CCCCC1`, the “hERG current change (%, negative = inhibition) at 1uM” value stood at 9.89%.
Turning to `CO/N=C/NC(=O)c1c(OC)ccnc1Oc1ccc(Cl)cc1`, the “hERG current change (%, negative = inhibition) at 1uM” value is listed as 1.44%.
Turning to `Cc1occc1C(=O)N1CCCC(N2CCN(c3cccc(Cl)c3)CC2)C1` (centres unmarked), the “hERG current change (%, negative = inhibition) at 1uM” value was -6.5%.
In the case of `COc1ccc(CCNC(=O)CSc2ccc(-c3ccncc3)nn2)cc1` it was 7.32%.
As for `CC(C)(C)Cn1c(=O)[nH]c(=O)c2cc([N+](=O)[O-])cnc21`, the figure is 11.4%; as for `O=C(CN1C(=O)NC2(CCCC2)C1=O)NCCN1C(=O)S/C(=C\c2ccccc2F)C1=O`, 11.5%.
In the case of `CCc1ccccc1NC(=S)N(CCCN1CCOCC1)Cc1cccs1` it was -4.11%; in that of `Cc1ccccc1CN(C)CCS(=O)(=O)c1cc(Cl)ccc1Cl`, 16.2%; in that of `COc1ccccc1CC(=O)Nc1ccc(O)cc1C(=O)O`, -4.41%.
As to `CN(CC(=O)Nc1cccc(F)c1)CC(=O)Nc1cc(S(=O)(=O)N2CCOCC2)ccc1Cl`, the “hERG current change (%, negative = inhibition) at 1uM” value was found to be 2.03%.
Consider `CC(=O)Nc1c2c(nn1-c1ccccc1)CS(=O)C2` (centres unmarked), for which the “hERG current change (%, negative = inhibition) at 1uM” value came to 17.8%.
As for `CCCCNC(=O)c1cn(CC)c2cc(N3CCN(C(=O)c4ccco4)CC3)c(F)cc2c1=O`, the “hERG current change (%, negative = inhibition) at 1uM” value was -3.68%.
As for `NS(=O)(=O)c1cc(C(=O)O)c(NCc2ccco2)cc1Cl`, the figure is 9.92%; as for `COc1ccc(-c2noc(C3CCCN(C(=O)c4ccccc4)C3)n2)cc1` (centres unmarked), -3.28%.
For `CCCCNc1cc(NC(C)=O)cc2cc(OC)c(OC)cc12`, the “hERG current change (%, negative = inhibition) at 1uM” value is on record as 9.91%.
As for `Oc1c(C=C2N=c3ccccc3=N2)sc(=S)n1C1CCCCC1` [17505580], the figure is 5.09%; as for `COc1ccccc1OC(C)C(=O)N1CCc2ccccc21` (centres unmarked), 1.33%.
As for `CCOC(=O)c1c(NC(=O)c2c(Br)cnn2C)c(C#N)nn1-c1ccccc1`, the figure is 7.59%; as for `COc1ccc(Cl)cc1Nc1nc(N)nc(C(F)(F)F)n1`, -17.4%.
As for `Cn1c(=O)n(CC(N)=O)c(=O)c2c1nc(Br)n2Cc1ccccc1`, the figure is 16.4%.
Regarding `COc1c(C)cc(C(=O)C2CCCN(C(=O)/C=C/c3ccccn3)C2)cc1C` (centres unmarked), the “hERG current change (%, negative = inhibition) at 1uM” value is recorded as 4.48%.
With `COc1ccc(N2CCN(C(=O)CCC(=O)N3CCOc4ccc(C)cc43)CC2)cc1`, the “hERG current change (%, negative = inhibition) at 1uM” value is 9.78%.
`Cc1ccc(C(=O)C2CCN(CC(=O)NC3CCCC3)CC2)cc1`: the “hERG current change (%, negative = inhibition) at 1uM” value came to 3.14%.
As for `O=C(N/N=C/c1c(O)n(C2CCCCC2)c(=S)[nH]c1=O)c1ccccc1`, the figure is 11.7%; as for `COc1ccc(C(=O)NNC(=O)CCCCC(=O)NNC(=O)c2ccc(OC)cc2)cc1`, 1.74%; as for `O=C(c1ccc(Cl)s1)N1CCCC(N2CCN(c3ccc(F)cc3)CC2)C1` (centres unmarked), -63.2%.
In the case of `Fc1ccccc1CN(CCN1CCOCC1)C(=S)Nc1ccccc1Cl` it was 4.86%; in that of `BrC(=C\c1ccccc1)/C=N/N1CCN(c2ccccn2)CC1`, 0.856%.
In the case of `O=C(/C(=C(\O)c1ccccc1)c1ncc[nH]1)c1ccccc1` it was -0.656%; in that of `Cc1cc(=O)[nH]c(SCc2nnc(-c3ccccc3)o2)n1`, 2.99%; in that of `O=C(Nc1cc(N2CCOCC2)ncn1)c1ccccc1`, 6.84%.
Take `Cc1ccc(/C(N)=N/OC(=O)Cc2cccc3ccccc23)cc1`: the “hERG current change (%, negative = inhibition) at 1uM” value is given as -3.98%.

The values are drawn from article PMC4336329 (PLoS ONE, 2015).
